Several values for one entry are separate records, joined by “and”; a condition that tells them apart may be missing. Equal values may be shown once. Inconclusive results, whose numbers are uncertain, are shown with a selection of clear calls. Where the call is inconclusive, the potency comes from a doubtful curve fit. Some compounds were tested as several samples or in several runs, with calls that do not always agree. Activity calls are given as the source filed them. The call rests on the fitted dose curve; in most records, active means well fitted cell-killing curve with a large enough effect in the repeat runs; inconclusive means weak or mixed curves, or effect the other way; inactive means no such curve, though single readings can be large or run the other way.
Experiment: qHTS assay for identifying genotoxic compounds that show differential cytotoxicity against isogenic chicken DT40 cell lines with known DNA damage response pathways - Rev3 mutant cell line (AID 743014); further: nearly all actives have a fitted effect of over 55% in size
Conditions: chicken DT40 Rev3-/- viability, CellTiter-Glo, 40 h; series mostly up to 68.4 µM
Potency means the concentration at half of the fitted maximal effect; tags describe the fitted curve by direction and shape.

Row | SMILES | Potency
1 | C=CCc1ccc(O)c(OC)c1 | inconclusive: 68.2 µM [cytotoxic, partial curve, poor fit]
2 | N#CCc1cccc(C(F)(F)F)c1 | inactive
3 | NS(=O)(=O)c1ccc(C(=O)O)cc1 | inconclusive: 11.9 µM [rising, partial curve, poor fit]
4 | CC(C)(C)[C@@H](O)[C@@H](Cc1ccc(Cl)cc1)n1cncn1 | inconclusive: 54.1 µM [cytotoxic, partial curve]
5 | Cc1cccc(C)c1NC(=O)CN1CCCC1 | inactive
6 | CCCCCCCCCCCCCCCCCCCl | inconclusive: 3.35 µM [cytotoxic, partial curve, poor fit]
7 | CC(N)C(=O)OC(C)(C)Cc1ccc(Cl)cc1 (stereo not given) | inconclusive: 33.5 µM [cytotoxic, single point]
8 | CN(C)CCOCCN(C)CCO | inactive
9 | Cc1nc2ccc(Cl)cc2[nH]1 | inconclusive: 68.5 µM [cytotoxic, single point]
10 | CCCCCCCCCCCCCCO | inactive
11 | CC(=O)C(=O)O | inconclusive: 0.386 µM [cytotoxic, full curve, poor fit]
12 | CCCCCCOC(=O)CC | inactive
13 | ClC(Cl)Cl | inactive
14 | CNC(=O)N(c1ccccc1)c1ccccc1 | inconclusive: 77.3 µM [cytotoxic, partial curve, poor fit]
15 | FC(F)(F)C(Cl)(Cl)Cl | inactive
16 | NC[C@H]1O[C@H](O[C@H]2[C@H](O)[C@@H](O[C@H]3O[C@H](CO)[C@@H](O)[C@H](N)[C@H]3O)[C@H](N)C[C@@H]2N)[C@H](N)[C@@H](O)[C@@H]1O | inactive
17 | OC[C@H]1O[C@@H](Oc2ccc(O)cc2)[C@H](O)[C@@H](O)[C@@H]1O | inactive and active: 30.6 µM
18 | FC(F)(F)c1ccc(Cl)c(Cl)c1 | inactive
19 | CN1C(=O)CC(C)(c2ccccc2)C1=O (stereo not given) | inactive
20 | CC1=CCCC(C)(C)C12CCC(C)O2 (stereo not given) | inconclusive: 10.9 µM [cytotoxic, partial curve]

Row | SMILES | Potency
21 | CCN(CCO)c1cccc(C)c1 | inconclusive: 13.7 µM [cytotoxic, full curve]
22 | O=C(NCCO[N+](=O)[O-])c1cccnc1 | inconclusive: 26.6 µM [rising, partial curve, poor fit]
23 | COc1cc(N)ccc1C | inconclusive: 30.3 µM [cytotoxic, partial curve, poor fit]
24 | O=C(O)[C@@H](O)[C@H](O)[C@H](O)[C@@H](O)C(=O)O | inactive
25 | OCCc1ccccn1 | inactive
26 | Nc1ccn([C@H]2CC[C@@H](CO)O2)c(=O)n1 | inconclusive: 33.5 µM [cytotoxic, single point] and inconclusive: 53.5 µM [cytotoxic, partial curve]
27 | Cc1ccncc1 | inactive
28 | CC1=CC(C)(C)Nc2ccccc21 | inconclusive: 66.8 µM [cytotoxic]
29 | CC(=O)OCc1ccco1 | inconclusive: 27.1 µM [cytotoxic, partial curve]
30 | CCCCNc1ccc(C(=O)OCCN(CC)CC)cc1 | active: 1.68 µM
31 | CC1=CCC2CC1C2(C)C (stereo not given) | inactive
32 | CCCCCCCCCCCCCCCC(=O)OC(C)C | inactive
33 | CC(COC(C)(C)C)OCCCO (stereo not given) | inconclusive: 13.7 µM [cytotoxic, full curve]
34 | CCCCCCCC(=O)OCC(O)CO (stereo not given) | inconclusive: 21.1 µM [rising, partial curve, poor fit]
35 | CCOC(=O)c1ccc(N(C)C)cc1 | inconclusive: 68.6 µM [cytotoxic, single point]
36 | O=S(=O)(O)c1cccc(S(=O)(=O)O)c1 | inconclusive: 61.1 µM [cytotoxic, partial curve, poor fit]
37 | Nc1cccc(C(F)(F)F)c1 | inactive
38 | CC(C)COC(=O)c1ccccc1 | inconclusive: 48.6 µM [cytotoxic, partial curve]
39 | CCC(C)(C)C1CCC(OC)CC1 (stereo not given) | inconclusive: 68.6 µM [cytotoxic, single point]
40 | O=c1[nH]c(=O)c2cn[nH]c2[nH]1 | inconclusive: 0.0217 µM [cytotoxic, full curve, poor fit]
